# Measured values taken from article PMC4336329 (PLoS ONE, 2015).
# Screen size: about 310,000 compounds; about 2,200 (0.71%) showed an effect of 50% or more. Effects have a minus sign here. Some of the results follow.
# Target: human ether-à-go-go-related gene (hERG) potassium channel (human, UniProt Q12809)
# Experiment: primary screen, population patch clamp on CHO cells stably expressing hERG
# Chain of human ether-à-go-go-related gene (hERG) potassium channel (Q12809 whole entry, looked up): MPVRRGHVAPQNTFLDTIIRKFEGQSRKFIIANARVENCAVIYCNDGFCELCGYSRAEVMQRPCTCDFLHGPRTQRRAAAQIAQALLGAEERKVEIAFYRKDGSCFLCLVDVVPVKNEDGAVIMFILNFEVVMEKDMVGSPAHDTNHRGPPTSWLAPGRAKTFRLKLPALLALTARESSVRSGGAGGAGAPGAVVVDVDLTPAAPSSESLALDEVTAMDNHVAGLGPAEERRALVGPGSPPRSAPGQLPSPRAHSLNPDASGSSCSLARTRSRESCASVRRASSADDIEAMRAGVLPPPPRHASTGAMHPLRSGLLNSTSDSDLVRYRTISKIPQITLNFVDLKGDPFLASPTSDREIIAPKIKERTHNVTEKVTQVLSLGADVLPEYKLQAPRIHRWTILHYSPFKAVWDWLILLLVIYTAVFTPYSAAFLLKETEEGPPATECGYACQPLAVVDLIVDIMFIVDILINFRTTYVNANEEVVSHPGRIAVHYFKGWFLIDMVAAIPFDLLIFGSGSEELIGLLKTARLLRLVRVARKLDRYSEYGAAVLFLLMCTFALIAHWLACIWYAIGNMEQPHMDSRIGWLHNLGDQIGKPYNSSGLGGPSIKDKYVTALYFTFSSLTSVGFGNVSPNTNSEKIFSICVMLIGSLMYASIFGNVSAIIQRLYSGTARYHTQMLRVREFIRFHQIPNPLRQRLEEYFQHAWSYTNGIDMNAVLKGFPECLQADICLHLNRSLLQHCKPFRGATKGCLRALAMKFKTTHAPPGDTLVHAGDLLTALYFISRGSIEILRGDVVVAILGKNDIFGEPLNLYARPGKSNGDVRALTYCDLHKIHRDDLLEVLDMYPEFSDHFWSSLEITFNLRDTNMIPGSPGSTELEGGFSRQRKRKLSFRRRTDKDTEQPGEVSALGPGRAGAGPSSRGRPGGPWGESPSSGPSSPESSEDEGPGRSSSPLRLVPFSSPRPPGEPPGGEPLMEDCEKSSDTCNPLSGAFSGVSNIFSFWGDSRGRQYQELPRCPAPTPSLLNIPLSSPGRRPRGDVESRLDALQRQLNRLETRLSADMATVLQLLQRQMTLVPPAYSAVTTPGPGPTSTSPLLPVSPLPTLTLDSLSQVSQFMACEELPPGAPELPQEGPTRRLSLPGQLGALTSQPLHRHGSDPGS
row,SMILES,"hERG current change (%, negative = inhibition) at 1uM [%]"
1,COc1cc2c(cc1NC(=O)c1cncc(Br)c1)oc1ccccc12,9.75
2,CSc1cccc(NC(=O)COc2cccc3ccccc23)c1,15.8
3,O=C(Nc1ccccc1)Nc1cccc(C(F)(F)F)c1,16.6
4,Clc1ccc(-c2nc3ccc(Cl)cn3c2CN2CCCCC2)cc1,14.2
5,CC(C)(C)C(=O)Nc1cc(NC(=O)C(C)(C)C)cc(C(=O)Nc2c[nH]c(=O)[nH]c2=O)c1,6.12
6,CC1=NC(C(F)(F)F)(C(F)(F)F)C(C#N)=C(C)N1,7.7
7,CCCCc1sc(-c2c(C#N)c(N)nc3c2CCCCC3)cc1[N+](=O)[O-],0.421
8,O=C(/C=C/c1cccc([N+](=O)[O-])c1)N1CC[C@@]2(O)CCCC[C@H]2C1,-2.42
9,CCOC(=O)NNC(=O)NCCCCCCNC(=O)NNC(=O)OCC,14.8
10,N=c1oc2ccc(Br)cc2cc1C(=O)NC1CCCCCC1,-4.24
11,CC(C)CNC(=O)COc1ncnc2ccccc12,13.2
12,COc1cc(C=C2C(=O)NC(=O)NC2=O)cc(OC)c1OC,13.9
13,Cc1onc(-c2ccccc2)c1C(=O)Oc1cccnc1,1.87
14,COc1ccc(NS(=O)(=O)c2cccc(C(=O)N3CCN(Cc4ccc5c(c4)OCO5)CC3)c2)cc1,-3.97
15,CCn1cc(C(=O)N2CCc3ccccc32)c(=O)c2cc(S(=O)(=O)N(C)C3CCCCC3)ccc21,3.05
16,O=C(c1cccc([N+](=O)[O-])c1)N1CCN(c2ccc(N3CCOCC3)nn2)CC1,6.94
17,CN(C(=O)c1ccc(NC(=O)C2CC=CCC2C(=O)O)cc1)c1ccccc1 (stereo not shown),9.64
18,CCc1ccc(NC(=O)CNC(=O)c2cn(-c3ccccc3OC)c(=O)c3ccccc23)cc1,10.9
19,CCC(=O)c1ccc(OC(=O)c2ccc(Br)o2)cc1,12.9
20,FC(F)(F)c1ccc(CN2C[C@@H]3C(c4ccccc4)C4(c5cccnc5)CC3(C4)[C@H]2c2ccccc2)cc1 (stereo partly shown),1.03
21,Cc1ccc(-c2nnc3c4ccccc4c(C)nn23)cc1S(=O)(=O)N1CCN(CCO)CC1,-8.5
22,O=C(COc1ccc(S(=O)(=O)NC2CCCCC2)cc1Cl)NCc1cccnc1,0.156
23,CC(C)c1ccc(C2c3[nH]c4ccccc4c3C[C@H]3C(=O)N(c4ccccc4C(=O)N4CCC[C@@H]4C(=O)O)C(=O)N23)cc1 (stereo partly shown),7.87
24,O=C(c1cc(-c2ccncc2)nc2ccccc12)N1CCN(c2ccccc2O)CC1,-0.758
25,Cc1ccc(Oc2nnc(-c3cccs3)c3ccccc23)cc1C,-8.41
26,CCOc1ccc(C(=O)NC(=S)Nc2ccccc2OC)cc1[N+](=O)[O-],3.79
27,Cc1cc(C)c(NC(=O)NC2CCCCC2)c(C)c1,13.7
28,Cc1ccc(C(=O)C(C)OC(=O)c2cc3cc([N+](=O)[O-])ccc3oc2=O)cc1 (stereo not shown),-0.781

row,SMILES,"hERG current change (%, negative = inhibition) at 1uM [%]"
1,O=c1[nH]c2ccccc2c2nc(-c3cccc(S(=O)(=O)N4CCCC4)c3)nn12,17.4
2,CCOC(=O)C1=C(C)C(c2ccc(OC)cc2)NC(=O)N1 (stereo not shown),12.7
3,Cc1ccc(N(CC(=O)N2CCCCC2)S(=O)(=O)c2ccc(C)cc2)cc1,7.07
4,S=C(c1ccc(N2CCOCC2)cc1)N1CCOCC1,14.3
5,Cc1cc(C)n2nc(C(=O)NC3CCCc4ccccc43)nc2n1 (stereo not shown),11.6
6,N#CCc1nnc2n1-c1ccccc1CCC2,-8.44
7,Cc1ccc(S(=O)(=O)N2CCN(C(=O)C3CSC4(C)CCC(=O)N34)CC2)cc1C (stereo not shown),1.82
8,COC(=O)CSc1nnc(CNC(=O)c2ccc(S(=O)(=O)N3CCCCC3)cc2)n1C,0.861
9,O=C1/C(=C/c2cccc([N+](=O)[O-])c2)Oc2cc(O)ccc21,12.7
10,Cc1cc(C)nc(/N=C(\N)Nc2ccc(S(N)(=O)=O)cc2)n1,14.1
11,O=C(CSc1nc2[nH]ncc2c(=O)[nH]1)Nc1ccc(Cl)c(Cl)c1,9.26
12,Cc1[nH][nH]c(=O)c1C(c1ccc(-c2cccc(Cl)c2)o1)c1c(C)[nH][nH]c1=O,11.4
13,COc1c(C)cc(C(=O)C2CCCN(Cc3cnc(N4CCOCC4)s3)C2)cc1C (stereo not shown),29.4
14,COC(=O)C1=C(C)OC(N)=C(C#N)C1c1ccsc1 (stereo not shown),-2.21
15,O=C1c2cccc3c(Cl)ccc(c23)C(=O)N1O,12.8
16,COCCSc1ccccc1C(=O)N1CCc2ccccc21,12.2
17,CC(C)c1ccc(C(C)NCCS(=O)(=O)c2ccc(Cl)cc2)cc1 (stereo not shown),-4
18,COC(=O)c1ccc(/C=C/c2c(-c3ccc(OC)cc3)oc3ccc(N4CCOCC4)cc23)cc1,20.1
19,COc1ccc(C2N(c3cc(Cl)ccc3OC)C(=O)C3CCCN32)c(OC)c1 (stereo not shown),3.14
20,COc1ccccc1C1(CC(=O)O)CCOC(C(C)C)C1 (stereo not shown),1.68
21,COc1ccc(OC)c(/C=N/NC(=O)Cc2nc3ccccc3[nH]2)c1,-3.24
22,COC(=O)c1c(NC(=O)CSc2nnc3ccccn23)sc2c1CCC2,-6.76
23,CC(=O)c1ccccc1NC(=O)CCCNC(=O)c1ccc(Cl)cc1,13.1
24,COc1ccccc1C(=O)C1CCCN(C(=O)Nc2ccccc2F)C1 (stereo not shown),11.1
25,O=C1Nc2c(ccc(Cl)c2Cl)C(=O)C1(F)c1ccccc1 (stereo not shown),10.5
26,O=C(O)c1cc2c(cc1NC(=O)C1CCCC1)OCCO2,11.2
27,CC1(C)CC(=O)C(C=NCC(N)=O)=C(O)C1,-18.4
